# Measurements: publication PMC5700166
# This is a selection; strong and weak results do not stand in their true shares. For part of these data: The list includes weakly bound sequences.
# What was measured:
# Test in all cases: protein-binding microarray (PBM)
# Details in all cases: PBM: ~300 nM protein, 6 mM HEPES pH 7.8, 80 mM KCl, 0.5 mM EDTA, 0.5 mM EGTA, 6% glycerol, 35 ng/ul poly-dIdC, 1% milk, 1 h, room temperature; Ap Aiptasia and Nv Nematostella (sea anemones) / Co Capsaspora / Aq Amphimedon (sponge) / Dm Drosophila / Hu human; RHD is the Rel homology domain; high values mean tight binding; most listed sequences are background and not binding sites; double strand, one strand shown
# GST-Co-NF-kB = molecular target: T1, GST-Co-NF-kB (UniProt F1ARL5)
# T1 sequence: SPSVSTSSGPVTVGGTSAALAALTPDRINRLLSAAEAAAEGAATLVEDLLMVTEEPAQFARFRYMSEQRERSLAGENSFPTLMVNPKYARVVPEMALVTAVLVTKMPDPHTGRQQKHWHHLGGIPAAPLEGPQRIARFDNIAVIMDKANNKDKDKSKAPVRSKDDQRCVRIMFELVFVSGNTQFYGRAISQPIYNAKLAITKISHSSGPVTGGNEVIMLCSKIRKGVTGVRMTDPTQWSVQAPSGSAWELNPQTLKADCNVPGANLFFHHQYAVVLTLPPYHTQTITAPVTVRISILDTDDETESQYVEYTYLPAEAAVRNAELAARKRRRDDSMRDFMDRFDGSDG
# GST-Dm-Relish = molecular target: T2, GST-Dm-Relish (UniProt Q94527)
# T2 sequence: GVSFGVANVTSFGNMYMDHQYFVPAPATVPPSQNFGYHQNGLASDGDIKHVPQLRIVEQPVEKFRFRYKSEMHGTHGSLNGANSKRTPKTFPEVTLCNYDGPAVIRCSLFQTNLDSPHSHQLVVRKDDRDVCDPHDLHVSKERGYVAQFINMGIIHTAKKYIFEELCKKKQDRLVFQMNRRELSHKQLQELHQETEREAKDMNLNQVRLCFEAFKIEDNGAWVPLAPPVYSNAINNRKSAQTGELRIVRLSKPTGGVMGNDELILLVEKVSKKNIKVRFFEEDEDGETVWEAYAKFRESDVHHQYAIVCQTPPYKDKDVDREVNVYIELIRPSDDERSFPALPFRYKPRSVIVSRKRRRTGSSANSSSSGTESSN
# GST-Aq-NF-kB = molecular target: T3, GST-Aq-NF-kB (UniProt A9Y5G7)
# T3 sequence: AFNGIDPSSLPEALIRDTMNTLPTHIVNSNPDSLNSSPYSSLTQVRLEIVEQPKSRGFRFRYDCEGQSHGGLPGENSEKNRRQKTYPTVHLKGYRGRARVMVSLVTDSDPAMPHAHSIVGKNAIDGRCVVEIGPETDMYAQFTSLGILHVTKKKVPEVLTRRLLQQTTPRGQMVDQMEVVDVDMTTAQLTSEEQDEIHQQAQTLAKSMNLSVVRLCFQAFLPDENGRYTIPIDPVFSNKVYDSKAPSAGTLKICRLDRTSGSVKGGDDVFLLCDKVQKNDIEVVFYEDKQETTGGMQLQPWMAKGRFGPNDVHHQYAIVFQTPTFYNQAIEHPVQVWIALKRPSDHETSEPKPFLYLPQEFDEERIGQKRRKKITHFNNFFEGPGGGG
# GST-Ap-NF-kB RHD = molecular target: T4, GST-Ap-NF-kB RHD (UniProt A0A913YAJ5)
# T4 sequence: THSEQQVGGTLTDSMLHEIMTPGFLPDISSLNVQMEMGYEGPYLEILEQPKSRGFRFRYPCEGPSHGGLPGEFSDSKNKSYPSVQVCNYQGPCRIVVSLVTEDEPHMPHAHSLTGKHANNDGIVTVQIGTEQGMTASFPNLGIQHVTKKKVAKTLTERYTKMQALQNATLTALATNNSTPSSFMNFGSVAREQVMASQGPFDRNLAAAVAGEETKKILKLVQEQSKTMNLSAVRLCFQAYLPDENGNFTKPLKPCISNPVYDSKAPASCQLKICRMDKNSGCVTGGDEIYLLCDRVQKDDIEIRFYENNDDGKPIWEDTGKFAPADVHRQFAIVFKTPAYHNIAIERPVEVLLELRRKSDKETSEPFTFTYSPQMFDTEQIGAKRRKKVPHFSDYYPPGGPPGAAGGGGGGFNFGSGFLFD
sequence,measurement,setting,value
CCGATTAACATCAATGTGGGAAATGATGTTAATCGGGTCTTGATTCGCTTGACGCTGCTG,binding signal,GST-Co-NF-kB,2.85 z-score
same,binding signal,GST-Dm-Relish,0.637 z-score
same,binding signal,GST-Aq-NF-kB,1.55 z-score
CCGATTAACATCAGGGGGGAAACTGATGTTAATCGGGTCTTGATTCGCTTGACGCTGCTG,binding signal,GST-Co-NF-kB,11.1 z-score
same,binding signal,GST-Dm-Relish,5.47 z-score
same,binding signal,GST-Aq-NF-kB,5.87 z-score
CCGATTAACATCACGGGGATTTATGATGTTAATCGGGTCTTGATTCGCTTGACGCTGCTG,binding signal,GST-Dm-Relish,8.32 z-score
same,binding signal,GST-Aq-NF-kB,5.47 z-score
CCGATTAACATCAGAATCTCCCATGATGTTAATCGGGTCTTGATTCGCTTGACGCTGCTG,binding signal,GST-Dm-Relish,0.371 z-score
same,binding signal,GST-Aq-NF-kB,2.73 z-score
CCGATTAACATCAAAAGTCCCCTTGATGTTAATCGGGTCTTGATTCGCTTGACGCTGCTG,binding signal,GST-Dm-Relish,9.45 z-score
same,binding signal,GST-Aq-NF-kB,7.89 z-score
CCGATTAACATCAGGAAGTTCCCTGATGTTAATCGGGTCTTGATTCGCTTGACGCTGCTG,binding signal,GST-Dm-Relish,4.82 z-score
same,binding signal,GST-Aq-NF-kB,7.74 z-score
CCGATTAACATCAACGTTTTCCCTGATGTTAATCGGGTCTTGATTCGCTTGACGCTGCTG,binding signal,GST-Dm-Relish,1.51 z-score
same,binding signal,GST-Aq-NF-kB,3.21 z-score
CCGATTAACATCAGGAGTCCCCATGATGTTAATCGGGTCTTGATTCGCTTGACGCTGCTG,binding signal,GST-Dm-Relish,7.3 z-score
same,binding signal,GST-Aq-NF-kB,4.27 z-score
CCGATTAACATCAAGGGGGATACTGATGTTAATCGGGTCTTGATTCGCTTGACGCTGCTG,binding signal,GST-Ap-NF-kB RHD,6.74 z-score
CCGATTAACATCAGGGAAATACCTGATGTTAATCGGGTCTTGATTCGCTTGACGCTGCTG,binding signal,GST-Dm-Relish,8.42 z-score
same,binding signal,GST-Aq-NF-kB,9.82 z-score
CCGATTAACATCAGGGGATACACTGATGTTAATCGGGTCTTGATTCGCTTGACGCTGCTG,binding signal,GST-Dm-Relish,5.84 z-score
same,binding signal,GST-Aq-NF-kB,4.05 z-score
CCGATTAACATCAAATAATTCCCTGATGTTAATCGGGTCTTGATTCGCTTGACGCTGCTG,binding signal,GST-Ap-NF-kB RHD,4.23 z-score
CCGATTAACATCAGAATTCCCGATGATGTTAATCGGGTCTTGATTCGCTTGACGCTGCTG,binding signal,GST-Ap-NF-kB RHD,3.78 z-score
CCGATTAACATCAGCATTTTCCCTGATGTTAATCGGGTCTTGATTCGCTTGACGCTGCTG,binding signal,GST-Dm-Relish,0.976 z-score
same,binding signal,GST-Aq-NF-kB,3.68 z-score
CCGATTAACATCAAAAATTCACCTGATGTTAATCGGGTCTTGATTCGCTTGACGCTGCTG,binding signal,GST-Dm-Relish,5.78 z-score
same,binding signal,GST-Aq-NF-kB,2.74 z-score
CCGATTAACATCACGAAATCCCCTGATGTTAATCGGGTCTTGATTCGCTTGACGCTGCTG,binding signal,GST-Ap-NF-kB RHD,8.93 z-score
CCGATTAACATCAGGGGATGTACTGATGTTAATCGGGTCTTGATTCGCTTGACGCTGCTG,binding signal,GST-Dm-Relish,9.92 z-score
same,binding signal,GST-Aq-NF-kB,5.33 z-score
CCGATTAACATCAAAAAAACCCCTGATGTTAATCGGGTCTTGATTCGCTTGACGCTGCTG,binding signal,GST-Dm-Relish,9.78 z-score
same,binding signal,GST-Aq-NF-kB,8.79 z-score
CCGATTAACATCAAGCATTTCCCTGATGTTAATCGGGTCTTGATTCGCTTGACGCTGCTG,binding signal,GST-Dm-Relish,0.924 z-score
same,binding signal,GST-Aq-NF-kB,3.63 z-score
CCGATTAACATCAGAATATCCCCTGATGTTAATCGGGTCTTGATTCGCTTGACGCTGCTG,binding signal,GST-Dm-Relish,6.49 z-score
same,binding signal,GST-Aq-NF-kB,5.85 z-score
CCGATTAACATCAGGAAGTCCCCTGATGTTAATCGGGTCTTGATTCGCTTGACGCTGCTG,binding signal,GST-Dm-Relish,8.96 z-score
same,binding signal,GST-Aq-NF-kB,8.77 z-score
CCGATTAACATCAAGAACTTCCCTGATGTTAATCGGGTCTTGATTCGCTTGACGCTGCTG,binding signal,GST-Dm-Relish,2.86 z-score
same,binding signal,GST-Aq-NF-kB,4.6 z-score
CCGATTAACATCAACATTTCCCCTGATGTTAATCGGGTCTTGATTCGCTTGACGCTGCTG,binding signal,GST-Dm-Relish,3.46 z-score
same,binding signal,GST-Aq-NF-kB,5.86 z-score
CCGATTAACATCAGGGGTCCCCATGATGTTAATCGGGTCTTGATTCGCTTGACGCTGCTG,binding signal,GST-Dm-Relish,7.31 z-score
same,binding signal,GST-Aq-NF-kB,3.6 z-score
CCGATTAACATCACTAATTTCCCTGATGTTAATCGGGTCTTGATTCGCTTGACGCTGCTG,binding signal,GST-Ap-NF-kB RHD,3.79 z-score
CCGATTAACATCACGTCCCCCCCTGATGTTAATCGGGTCTTGATTCGCTTGACGCTGCTG,binding signal,GST-Dm-Relish,4.38 z-score
same,binding signal,GST-Aq-NF-kB,4.49 z-score
CCGATTAACATCACTGGGAATTCTGATGTTAATCGGGTCTTGATTCGCTTGACGCTGCTG,binding signal,GST-Ap-NF-kB RHD,3.23 z-score
CCGATTAACATCAAGTAATCCCCTGATGTTAATCGGGTCTTGATTCGCTTGACGCTGCTG,binding signal,GST-Dm-Relish,7.56 z-score
same,binding signal,GST-Aq-NF-kB,6.04 z-score
CCGATTAACATCAGGAGCTCCCCTGATGTTAATCGGGTCTTGATTCGCTTGACGCTGCTG,binding signal,GST-Ap-NF-kB RHD,4.8 z-score
CCGATTAACATCACGGGGGGTAATGATGTTAATCGGGTCTTGATTCGCTTGACGCTGCTG,binding signal,GST-Ap-NF-kB RHD,4.02 z-score
CCGATTAACATCAGGGAAAATAATGATGTTAATCGGGTCTTGATTCGCTTGACGCTGCTG,binding signal,GST-Ap-NF-kB RHD,3.42 z-score
CCGATTAACATCACCCCCCCCCATGATGTTAATCGGGTCTTGATTCGCTTGACGCTGCTG,binding signal,GST-Ap-NF-kB RHD,4.92 z-score
CCGATTAACATCAGGGAAAATTATGATGTTAATCGGGTCTTGATTCGCTTGACGCTGCTG,binding signal,GST-Dm-Relish,2.28 z-score
same,binding signal,GST-Aq-NF-kB,6.77 z-score
CCGATTAACATCAGGGGAATGGATGATGTTAATCGGGTCTTGATTCGCTTGACGCTGCTG,binding signal,GST-Dm-Relish,1.71 z-score
same,binding signal,GST-Aq-NF-kB,4.07 z-score
CCGATTAACATCAGGCCATCCCCTGATGTTAATCGGGTCTTGATTCGCTTGACGCTGCTG,binding signal,GST-Ap-NF-kB RHD,3.87 z-score
CCGATTAACATCAGGGGGGTGGATGATGTTAATCGGGTCTTGATTCGCTTGACGCTGCTG,binding signal,GST-Dm-Relish,3.78 z-score
same,binding signal,GST-Aq-NF-kB,4.03 z-score
CCGATTAACATCAGGGAGTTACCTGATGTTAATCGGGTCTTGATTCGCTTGACGCTGCTG,binding signal,GST-Dm-Relish,7.17 z-score
same,binding signal,GST-Aq-NF-kB,7.22 z-score
CCGATTAACATCAGGGTATTACCTGATGTTAATCGGGTCTTGATTCGCTTGACGCTGCTG,binding signal,GST-Ap-NF-kB RHD,4.39 z-score
CCGATTAACATCAAAGTCTCCCCTGATGTTAATCGGGTCTTGATTCGCTTGACGCTGCTG,binding signal,GST-Ap-NF-kB RHD,5.38 z-score
CCGATTAACATCAGAACTTCCCATGATGTTAATCGGGTCTTGATTCGCTTGACGCTGCTG,binding signal,GST-Ap-NF-kB RHD,2.63 z-score
CCGATTAACATCACGGGGTTGCCTGATGTTAATCGGGTCTTGATTCGCTTGACGCTGCTG,binding signal,GST-Dm-Relish,2.5 z-score
same,binding signal,GST-Aq-NF-kB,2.2 z-score
CCGATTAACATCAACATTTTCCCTGATGTTAATCGGGTCTTGATTCGCTTGACGCTGCTG,binding signal,GST-Dm-Relish,1.62 z-score
same,binding signal,GST-Aq-NF-kB,3.41 z-score
CCGATTAACATCAGGGAATCTACTGATGTTAATCGGGTCTTGATTCGCTTGACGCTGCTG,binding signal,GST-Ap-NF-kB RHD,2.43 z-score
CCGATTAACATCAGAAAGTCCCCTGATGTTAATCGGGTCTTGATTCGCTTGACGCTGCTG,binding signal,GST-Ap-NF-kB RHD,8.98 z-score
CCGATTAACATCAAAAATACCCATGATGTTAATCGGGTCTTGATTCGCTTGACGCTGCTG,binding signal,GST-Ap-NF-kB RHD,4.63 z-score
